From publication PMC5700166 come the findings set out here.

Test in all cases: protein-binding microarray (PBM)
Holding throughout (settings): PBM: ~300 nM protein, 6 mM HEPES pH 7.8, 80 mM KCl, 0.5 mM EDTA, 0.5 mM EGTA, 6% glycerol, 35 ng/ul poly-dIdC, 1% milk, 1 h, room temperature; Ap Aiptasia and Nv Nematostella (sea anemones) / Co Capsaspora / Aq Amphimedon (sponge) / Dm Drosophila / Hu human; RHD is the Rel homology domain; high values mean tight binding; most listed sequences are background and not binding sites; double strand, one strand shown

One test concerns the target T1, GST-Ap-NF-kB RHD (UniProt A0A913YAJ5).
T1 sequence: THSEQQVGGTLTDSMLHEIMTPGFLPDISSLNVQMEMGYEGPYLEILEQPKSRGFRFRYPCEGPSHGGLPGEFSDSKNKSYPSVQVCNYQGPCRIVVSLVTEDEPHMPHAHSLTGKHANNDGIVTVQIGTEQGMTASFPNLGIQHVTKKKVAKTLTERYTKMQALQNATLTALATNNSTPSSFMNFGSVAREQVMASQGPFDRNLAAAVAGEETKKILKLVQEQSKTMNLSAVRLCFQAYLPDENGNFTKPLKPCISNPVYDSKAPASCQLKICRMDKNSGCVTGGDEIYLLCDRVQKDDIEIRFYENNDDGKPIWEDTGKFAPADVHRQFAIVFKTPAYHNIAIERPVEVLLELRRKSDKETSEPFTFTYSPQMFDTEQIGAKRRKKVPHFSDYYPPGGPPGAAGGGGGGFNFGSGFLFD

The target in test [1] is T2, GST-Nv-NF-kB (Cys allele) (UniProt E5G601).
T2 sequence: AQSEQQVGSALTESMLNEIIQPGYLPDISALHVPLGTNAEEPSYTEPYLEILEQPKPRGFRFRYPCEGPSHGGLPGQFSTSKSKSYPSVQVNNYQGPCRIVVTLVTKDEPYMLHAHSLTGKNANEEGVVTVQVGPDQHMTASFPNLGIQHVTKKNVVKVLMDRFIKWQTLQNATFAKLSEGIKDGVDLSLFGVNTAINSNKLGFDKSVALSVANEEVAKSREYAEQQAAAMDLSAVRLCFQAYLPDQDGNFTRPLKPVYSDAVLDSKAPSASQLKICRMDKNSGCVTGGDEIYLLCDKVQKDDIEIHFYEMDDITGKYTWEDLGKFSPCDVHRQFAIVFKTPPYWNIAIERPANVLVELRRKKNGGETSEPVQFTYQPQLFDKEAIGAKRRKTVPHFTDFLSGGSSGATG

For the next test, the target named is T3, GST-Co-NF-kB (UniProt F1ARL5).
T3 sequence: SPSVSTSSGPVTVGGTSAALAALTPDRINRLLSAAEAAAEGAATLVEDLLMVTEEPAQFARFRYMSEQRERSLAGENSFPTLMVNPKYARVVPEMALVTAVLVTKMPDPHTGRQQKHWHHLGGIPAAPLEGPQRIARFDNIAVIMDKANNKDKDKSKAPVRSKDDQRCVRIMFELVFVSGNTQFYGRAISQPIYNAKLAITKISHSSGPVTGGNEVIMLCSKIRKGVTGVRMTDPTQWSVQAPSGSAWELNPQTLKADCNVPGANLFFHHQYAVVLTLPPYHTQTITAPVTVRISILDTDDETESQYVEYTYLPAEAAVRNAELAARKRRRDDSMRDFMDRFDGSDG

A further test addresses T4, GST-Dm-Relish (UniProt Q94527).
T4 sequence: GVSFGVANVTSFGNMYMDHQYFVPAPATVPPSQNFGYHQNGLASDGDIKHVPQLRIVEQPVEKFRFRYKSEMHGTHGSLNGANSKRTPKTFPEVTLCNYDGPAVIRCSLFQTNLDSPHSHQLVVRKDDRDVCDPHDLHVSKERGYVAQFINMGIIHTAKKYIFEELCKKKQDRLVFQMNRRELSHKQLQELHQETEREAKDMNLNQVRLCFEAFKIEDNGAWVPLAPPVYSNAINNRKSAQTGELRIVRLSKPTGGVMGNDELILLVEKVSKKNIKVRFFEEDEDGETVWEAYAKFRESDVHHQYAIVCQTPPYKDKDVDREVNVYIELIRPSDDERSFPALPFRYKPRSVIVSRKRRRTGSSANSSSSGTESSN

The next test deals with T5, GST-Aq-NF-kB (UniProt A9Y5G7).
T5 sequence: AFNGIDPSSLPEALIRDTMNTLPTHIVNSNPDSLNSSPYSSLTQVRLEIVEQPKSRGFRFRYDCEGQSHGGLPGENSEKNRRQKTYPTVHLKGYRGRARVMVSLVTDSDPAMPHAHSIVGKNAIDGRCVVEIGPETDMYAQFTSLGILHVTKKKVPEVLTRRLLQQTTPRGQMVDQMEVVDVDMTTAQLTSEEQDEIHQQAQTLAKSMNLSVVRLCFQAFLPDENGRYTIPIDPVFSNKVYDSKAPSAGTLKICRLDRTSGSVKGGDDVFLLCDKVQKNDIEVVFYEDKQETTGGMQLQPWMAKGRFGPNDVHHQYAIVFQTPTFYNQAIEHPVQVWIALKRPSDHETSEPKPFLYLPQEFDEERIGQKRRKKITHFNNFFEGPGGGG

This is a selection; strong and weak results do not stand in their true shares. The list includes weakly bound sequences.

Turning to “CCGATTAACATCACATATCAATGTGATGTTAATCGGGTCTTGATTCGCTTGACGCTGCTG”, the binding signal in the test with GST-Ap-NF-kB RHD is -1.59 z-score; in test [1], -0.634 z-score; with GST-Co-NF-kB, -0.875 z-score; with GST-Dm-Relish, -0.0626 z-score; in the test with GST-Aq-NF-kB, -0.424 z-score.

As for “CCGATTAACATCACGCACGGACATGATGTTAATCGGGTCTTGATTCGCTTGACGCTGCTG”, the binding signal in the test with GST-Ap-NF-kB RHD was 0.0642 z-score; in test [1] it was -0.523 z-score; with GST-Co-NF-kB, -1.07 z-score; with GST-Dm-Relish it was -0.252 z-score; in the test with GST-Aq-NF-kB, -0.34 z-score.

Consider “CCGATTAACATCAGGAATACACATGATGTTAATCGGGTCTTGATTCGCTTGACGCTGCTG”, for which the binding signal was 0.00426 z-score with GST-Ap-NF-kB RHD; -0.584 z-score in test [1]; -0.0779 z-score with GST-Co-NF-kB; 0.919 z-score with GST-Dm-Relish; -0.0299 z-score with GST-Aq-NF-kB.

In the case of “CCGATTAACATCAAATAGGCTCATGATGTTAATCGGGTCTTGATTCGCTTGACGCTGCTG”, the binding signal in the test with GST-Ap-NF-kB RHD is -0.2 z-score; in test [1], -0.661 z-score; in the test with GST-Co-NF-kB, -0.437 z-score; with GST-Dm-Relish, -1.07 z-score; with GST-Aq-NF-kB, -0.729 z-score.

For the sequence “CCGATTAACATCAATGGAATTTCTGATGTTAATCGGGTCTTGATTCGCTTGACGCTGCTG”, the binding signal with GST-Ap-NF-kB RHD is -0.0503 z-score; in test [1], 0.259 z-score; in the test with GST-Co-NF-kB, -0.447 z-score; in the test with GST-Dm-Relish, 0.515 z-score; with GST-Aq-NF-kB, 0.75 z-score.

As to “CCGATTAACATCACGATCTCTGTTGATGTTAATCGGGTCTTGATTCGCTTGACGCTGCTG”, the binding signal in the test with GST-Ap-NF-kB RHD was -0.192 z-score; in test [1], -0.991 z-score; in the test with GST-Co-NF-kB, -0.516 z-score; with GST-Dm-Relish, -0.621 z-score; in the test with GST-Aq-NF-kB, -0.327 z-score.

As to “CCGATTAACATCATAAGGACGTATGATGTTAATCGGGTCTTGATTCGCTTGACGCTGCTG”, the binding signal in the test with GST-Ap-NF-kB RHD is -0.567 z-score; in test [1], 0.309 z-score; with GST-Co-NF-kB it was 0.474 z-score; with GST-Dm-Relish, -0.43 z-score; in the test with GST-Aq-NF-kB it was 0.126 z-score.

Take “CCGATTAACATCAGCGACCCGAATGATGTTAATCGGGTCTTGATTCGCTTGACGCTGCTG”: the binding signal is -0.319 z-score in the test with GST-Ap-NF-kB RHD; -0.456 z-score in test [1]; -0.515 z-score with GST-Co-NF-kB; 0.00415 z-score with GST-Dm-Relish; -0.316 z-score with GST-Aq-NF-kB.

In the case of “CCGATTAACATCACCGTTCCGATTGATGTTAATCGGGTCTTGATTCGCTTGACGCTGCTG”, the binding signal with GST-Ap-NF-kB RHD is -0.282 z-score; in test [1], -0.0273 z-score; with GST-Co-NF-kB, -0.775 z-score; in the test with GST-Dm-Relish, 0.635 z-score; with GST-Aq-NF-kB, 0.251 z-score.
